# Source: ChEMBL document CHEMBL5308541, “MAIP: An Open-Source Tool to Enrich High-Throughput Screening Output and Identify Novel, Druglike Molecules with Antimalarial Activity” (ACS Med Chem Lett, 2023)
# Screen size: about 150,000 compounds; about 540 (0.36%) showed an effect of 50% or more. Some of the results follow.
# System: Plasmodium falciparum
# Test: Primary screen in NF54 nanoGlo assay, in single point, at 2uM, 72h; a lower Z score goes with more inhibition
# Format: functional, Erythrocyte
# Conditions: timepoint 72 hour
SMILES,% Inhibition [%],Z score
c1csc(CCNc2ncnc3c2CCN([C@H]2CCCNC2)CC3)c1,-4,0.75
CN(Cc1cc(-c2ccncc2)no1)C(=O)N[C@H]1CCCN(C2CCCC2)C1,0,-0.08
CN1CCC2(CC1)CN(Cc1cccc3cnccc13)CCCN2C,-7,1.25
COC1CCN(CCNc2cncc(OCC(C)C)n2)CC1,-6,1.27
Cc1oc2ccccc2c1CNC(=O)N[C@H]1CCCCNC1=O,2,-0.36
Cc1nc(CNC(=O)N2CC(Oc3ccc(F)cc3)C2)nc2c1CCCC2,-12,2.01
CN1C[C@@H](Nc2nc(N)nc3c2CCCC3)[C@H](c2cncn2C)C1,9,-1.29
O=C(OC1CCN(c2nccs2)C1)N1CCC(n2cc(C3CC3)nn2)C1 (stereo not drawn),8,-1.4
O=C(c1ccc2[nH]ccc2c1)N1CCC[C@H]1C1(O)CC1,-5,0.99
Cc1cc(C)cc([C@@H](O)CNCc2ccc3c[nH]nc3c2)c1,3,-0.57
Cc1cc(N2CCC(N3CCN(CCO)CC3)CC2)c2cc(F)ccc2n1,-12,2.6
O=C(NC1CC2CCC(C1)N2Cc1ccccc1)N1CCC(N2CCNCC2)C1 (stereo not drawn),-16,2.81
Cc1ccc(-c2cccc3c(C(=O)NCCCN4CCC(N5CCCCC5)CC4)cc(C)nc23)cc1,98,-16.9
Fc1ccc(N2CC[C@H](CNc3ncnc4ccncc34)C2)cc1F,-5,0.79
C[C@H]1CCCCN1CCC1CCN(C(=O)Cc2ccc3[nH]ncc3c2)CC1,-9,1.33
O=C1NC(=O)C2(CCC(NC(=O)[C@@H]3COCCN3CC(F)F)CC2)N1 (stereo partly drawn),-1,0.23
N#Cc1ccc(NC2COCC2N2CCCC2)nc1 (stereo not drawn),-3,0.66
CC(C)[C@H](CO)N(C)C(=O)c1ccc(-c2ccc(O)cc2F)cc1,-8,1.34
CN1CCN(c2cc(N3CCN(C)CC3)c3ccncc3n2)CC1,-2,0.41
CCc1cccc(N2CCC(Nc3cc(C)nc(-c4ccncc4)n3)CC2)c1,-2,0.36
O=C(Cc1ccc(N2CCC(N3CCC([C@H](O)c4ccccc4)CC3)CC2)cc1)N1CCCC1,-1,0.19

SMILES,% Inhibition [%],Z score
O=C(CO)Nc1cccc(Nc2ncnc3cc(F)c(F)cc23)c1,2,-0.52
Clc1ccc2[nH]c3c(c2c1)CCCC3NC1CCN(C2CCOC2)CC1 (stereo not drawn),83,-16.55
CN(CC(=O)N1CCc2c(c(C(N)=O)nn2C)C1)Cc1ccccc1F,-12,2.08
CN(C)[C@H]1CCN(C(=O)c2cccc(-c3[nH]cnc3-c3ccccc3)c2)C1,-11,1.86
CCn1cc(-c2ccc(C(=O)N3CCC[C@H](CN4CCOCC4)C3)cc2)cn1,-11,2
CC(C)COc1cncc(NCc2ccccc2-c2cnn(C)c2)n1,-2,0.36
Oc1cccc([C@@H]2CN(Cc3cnns3)CCO2)c1,1,-0.12
c1cncc(-c2cccc(CN(c3ncnc4nc[nH]c34)C3CC3)c2)c1,-2,0.35
CN(Cc1cc2cc(F)ccc2[nH]1)C(=O)[C@@H]1CC2(CCNCC2)CN1,1,-0.17
COc1cc(NC(=O)N2CCOC[C@@H](CO)C2)cc(-n2nnnc2C)c1,-3,0.58
Nc1nc(-c2c[nH]c3ncc(Br)cc23)cs1,-3,0.56
O=C(NC1CC1)[C@H]1CCCN(C2CCN(c3ncc(F)cn3)CC2)C1,2,-0.41
C[C@H]1CCCN(CCNC(=O)c2ccc(-c3ccc4c(=O)[nH]ccc4c3)cc2)C1,67,-11.64
CC[C@@H]1C[C@H]1NS(=O)(=O)c1cnn2ncccc12,-4,0.73
COc1cccc(-c2cccc(CN3CCC4(O)CCNCC4C3)c2)c1 (stereo not drawn),22,-3.8
Fc1ccc(OCCN2CCC(Nc3cc(-n4ccnc4)ncn3)CC2)cc1,6,-0.97
CCc1cc(N2CCN(C(=O)NC3CCN(C4CCCC4)CC3)CC2)ncn1,-4,0.56
CCN1CCC[C@@H]1CNC(=O)CCC1CCN(C(=O)c2ccc[nH]2)CC1,8,-1.39
Cc1nc(Nc2cnn(CC(=O)NC3CCCC3)c2)c2cc[nH]c2n1,-4,0.84
CCc1nc(N)nc(NCCCn2cnnc2)c1C,-4,0.95
c1cc(NCc2ccc3ncccc3c2)cc(N2CCN(CC3CC3)CC2)c1,1,-0.18

SMILES,% Inhibition [%],Z score
Cc1csc2ncnc(NCc3cccc(-n4cncn4)c3)c12,-14,2.54
NC(=O)c1cc(-c2csc(Nc3ncnc4ccccc34)n2)c[nH]1,0,-0.01
COc1ccc2oc(C(=O)Nc3ccc(Oc4cccc5[nH]ccc45)nc3)c(C)c2c1,0,-0.05
CCc1ccc(Nc2nc(C(=O)NCCc3c[nH]cn3)nc3ccccc23)cc1,7,-1.15
Cc1ccnc(NCCNc2nccc(C(C)C)n2)c1,1,-0.2
COCCN(CC1CCN(Cc2ccccc2F)CC1)C(=O)c1ccnc2ccc(C)cc12,-4,0.66
COc1ccc2nc(NC3CCN(C)CC3)c(C)nc2c1,-6,0.9
Cn1cc([C@@H](Nc2nc3c(c(=O)[nH]c(=O)n3C)n2C)C(C)(C)C)cn1,-9,1.38
Cn1cc(-c2ccc3c(c2)NC(=O)CN2CCN(C(=O)NC4CCCC4)C[C@H]2CO3)cn1,-4,0.56
O=C(NC1CCOC1)OCC1CCCCN1CCN1CCCCC1 (stereo not drawn),2,-0.4
CC(C)c1csc(NC(=O)N2C[C@@H]3CCC[C@@]3(C(=O)O)C2)n1,-9,1.54
c1ccc(-c2nc3c(c(NC4CCOCC4)n2)CCNCC3)cc1,3,-0.49
Cc1cc(N[C@@H](C)C2CCN(C)CC2)nc(N(C)C)n1,5,-1.08
COc1cc2nc(-c3ccc([C@H](C)N4CCCC4)cc3)nc(N)c2cc1OC,12,-1.81
Cc1cccc(NC2CCN(c3ncnc4nc(N)ccc34)CC2)n1,-5,0.79
CCN1CCN(c2ccc(F)cc2C(C)NCC2CCCOC2)CC1 (stereo not drawn),3,-0.68
Cc1nnc(Cn2nc(C)sc2=O)s1,8,-1.42
c1cncc([C@H](CNC2CCN(Cc3ccco3)CC2)N2CCCCC2)c1,2,-0.39
CC(C)c1cc(CNc2ncnc3sccc23)on1,-2,0.39
CC(C)(O)C#Cc1ccc(CN(CC2CCN(C3CCCC3)CC2)C[C@H]2CCCO2)cc1,-11,1.92
c1cn(CCOc2ccc(CN3CCCC[C@@H]3CN3CCCC3)cc2)cn1,12,-2.07

SMILES,% Inhibition [%],Z score
FC(F)(F)c1nc(Nc2cccc(Cl)c2)sc1-c1ccccc1,-16,2.73
N#Cc1ccc(N2CCC[C@H](N3CCN(CCN4CCCOCC4)CC3)C2=O)cc1,-12,2.09
CN1CCC(CN2CCN(Cc3c[nH]nc3-c3cccc(F)c3)CC2)CC1,18,-3.15
CCOC(=O)c1nn(C)cc1CN1CCC[C@@H]1C(=O)OC(C)(C)C,13,-2.84
Fc1cnc(NC2CCN(C[C@H]3CCOC3)CC2)nc1,6,-0.91
CCn1cc(O[C@@H]2CN(c3ncnc4[nH]ccc34)C[C@H]2O)cn1,-3,0.4
O[C@@H](CN(c1ccccc1)c1ccccc1)Cn1cnc(-c2ccccc2)c1-c1ccccc1,8,-1.68
CCc1nc(NCc2cc3ccc(F)cc3[nH]c2=O)c2cnn(C)c2n1,-5,0.81
Fc1ccc2oc(N[C@H]3CCN(CCN4CCOCC4)C3)nc2c1,-7,1.01
CS(=O)(=O)N1CCc2c(ccc(C(=O)O)c2N)C1,-2,0.47
Fc1cnccc1NCC[C@H]1CCCCN1Cc1ccccc1,-14,2.48
COc1ccc2c(C(=O)NCCc3noc(C4CCC4)n3)cc(C)nc2c1,-6,1.03
Cc1c(CNC2CCN(Cc3cccs3)CC2)[nH]c2ccccc12,2,-0.35
O=C(CC1CCCCC1)N(CCCN1CCCC1)[C@H]1CCCNC1,6,-0.99
Cc1cc(N[C@H]2CCCN(C)C2)nc2ccc(F)cc12,5,-0.98
COc1cccc2ccc(N[C@H]3CCCN(C4Cc5ccccc5C4)C3)nc12,0,-0.02
COc1ccccc1COc1cc(NC(=O)[C@H]2CCCN(c3cc(-n4ccnc4)ncn3)C2)ncn1,-15,2.56
CC(=O)N1CCC(CNc2cc(Nc3ccccc3)nc(C)n2)CC1,0,0.04
COc1cccc2[nH]cc(CC(=O)Nc3cc(-c4cccnc4)n[nH]3)c12,1,-0.21
C#CCN1CCC(NCCN2CC[C@H](c3ccccc3)C2)CC1,-3,0.55
CCN(C(=O)c1cncc2ccccc12)[C@H]1CCOC(C)(C)C1,-12,2.6
